Data from a collection of fitness landscapes (doi:10.1126/science.1257360).
This is one part of the list.

B1: PhoQ; a variant is named by its letters at X, in order, P23837 (parent)
chain: MKKLLRLFFPLSLRVRFLLATAAVVLVLSLAYGMVALIGYSVSFDKTTFRLLRGESNLFYTLAKWENNKLHVELPENIDKQSPTMTLIYDENGQLLWAQRDVPWLMKMIQPDWLKSNGFHEIEADVNDTSLLLSGDHSIQQQLQEVREDDDDAEMTHSVAVNVYPATSRMPKLTIVVVDTIPVELKSSYMVWSWFIYVLSANLLLVIPLLWVAAWWSLRPIEALAKEVRELEEHNRELLNPATTRELTSLVRNLNRLLKSERERYDKYRTTLTDLTHSLKTPLXXLQXXLRSLRSEKMSVSDAEPVMLEQISRISQQIGYYLHRASMRGGTLLSRELHPVAPLLDNLTSALNKVYQRKGVNISLDISPEISFVGEQNDFVEVMGNVLDNACKYCLEFVEISARQTDEHLYIVVEDDGPGIPLSKREVIFDRGQRVDTLRPGQGVGLAVAREITEQYEGKIVAGESMLGGARMEVIFGRQHSAPKDE

Variants of: B1
Test: enrichment ratio after two sorts for PhoP signalling (ratio (wild type AVST 3.29)); higher = more functional
Conditions: with PhoP (E. coli)

Variant	enrichment ratio
AGGL	2.95
DPDD	≤ 0.25
IGSG	≤ 0.25
KSMP	≤ 0.25
EPLE	≤ 0.25
YWFM	≤ 0.25
EMIG	≤ 0.25
DLSQ	≤ 0.25
MFFV	≤ 0.25
SICG	22
HHNV	≤ 0.25
TPHG	≤ 0.25
HQCC	≤ 0.25
HFQW	≤ 0.25
NSFC	≤ 0.25
YTFA	≤ 0.25
VHHK	≤ 0.25
SQGY	0.654
AVNV	≤ 0.25
TDKW	≤ 0.25
DNVR	≤ 0.25

Variant	enrichment ratio
CCSI	≤ 0.25
VDWE	≤ 0.25
HQVK	≤ 0.25
MSKC	≤ 0.25
MFYQ	≤ 0.25
PVEH	≤ 0.25
MHAV	4.72
FMGH	≤ 0.25
MQAD	≤ 0.25
YNGW	≤ 0.25
STIC	13
RECD	≤ 0.25
KNCT	≤ 0.25
RHQL	≤ 0.25
ICVH	≤ 0.25
EISS	≤ 0.25
IVPP	≤ 0.25
MKKF	≤ 0.25
SFVK	≤ 0.25
NTPD	≤ 0.25
KNAI	≤ 0.25

Variant	enrichment ratio
TWYH	≤ 0.25
VQWH	≤ 0.25
WDDN	≤ 0.25
VLNL	≤ 0.25
FKVG	2.64
DWHI	≤ 0.25
GANK	≤ 0.25
HNFI	≤ 0.25
RYCE	≤ 0.25
NMTS	≤ 0.25
THRQ	≤ 0.25
ETNS	≤ 0.25
EGTP	≤ 0.25
TGRP	≤ 0.25
QPWC	≤ 0.25
DEKL	≤ 0.25
PGVA	≤ 0.25
RALG	≤ 0.25
GLYL	≤ 0.25
WTPP	≤ 0.25
GASG	≤ 0.25

Variant	enrichment ratio
TPWT	≤ 0.25
QAVM	≤ 0.25
RNIQ	≤ 0.25
GYQC	≤ 0.25
HIMM	≤ 0.25
SKGA	≤ 0.25
RLRV	≤ 0.25
GNHC	≤ 0.25
SGIW	≤ 0.25
FMAP	≤ 0.25
LFIH	≤ 0.25
DYRQ	≤ 0.25
VHRK	≤ 0.25
WHPL	≤ 0.25
RAML	≤ 0.25
PWFY	≤ 0.25
MKWD	≤ 0.25
TGVN	5.82
TTPF	≤ 0.25
HTHY	≤ 0.25
TPEW	≤ 0.25
